In the supplement of paper PMC3334620:
Whole data set: some 33,000 sequences, median “E-score (-0.5 to 0.5)” near -0.036, cut for the highest 2% near 0.37. The list shows a part of the results.

What follows are sequences tested against T1, Yer064c (UniProt P40041) (assay: PBM E-score (8-mer binding enrichment) (E-score (-0.5 to 0.5)); higher = stronger / more preferred TF binding; most listed sequences are background and not binding sites). Details: protein concentration: 200 nM; construct: GST-full length.
T1 sequence: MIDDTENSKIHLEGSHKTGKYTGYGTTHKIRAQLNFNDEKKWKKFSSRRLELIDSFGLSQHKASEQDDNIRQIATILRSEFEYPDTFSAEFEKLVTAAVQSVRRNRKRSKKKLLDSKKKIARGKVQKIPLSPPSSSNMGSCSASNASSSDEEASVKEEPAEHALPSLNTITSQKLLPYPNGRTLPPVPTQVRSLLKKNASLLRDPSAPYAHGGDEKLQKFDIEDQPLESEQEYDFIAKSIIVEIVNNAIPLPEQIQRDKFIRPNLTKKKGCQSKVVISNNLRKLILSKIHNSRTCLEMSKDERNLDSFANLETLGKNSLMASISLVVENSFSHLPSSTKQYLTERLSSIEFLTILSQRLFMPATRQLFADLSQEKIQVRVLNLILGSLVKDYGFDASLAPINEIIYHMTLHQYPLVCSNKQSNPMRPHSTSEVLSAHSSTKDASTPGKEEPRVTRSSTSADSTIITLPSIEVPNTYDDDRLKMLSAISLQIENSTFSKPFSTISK
Outline: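 Detection of bound protein used fluorescent anti-GST, with scans normalised by masliner. The proteins were GST-tagged yeast transcription factors applied at about 100-200 nM to universal all-10-mer Agilent arrays made double-stranded by primer extension. Each ungapped eight-base word, pooled with its reverse complement, was scored with an E-score from the Universal PBM Analysis Suite.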

First: CTGTTCCC
Second: AGTACACG
The “PBM E-score” value of the first is lower: -0.262 for the first, 0.0619 for the second.

First: GACGCGTA
Second: AGAAACGG
The “PBM E-score” value of the first is higher: -0.15 for the first, -0.193 for the second.

Going from GCTGATTA to CATACTAC, the “PBM E-score” value falls from 0.392 to -0.0608.

First: GGTAACAA
Second: TACCTGCA
The “PBM E-score” value of the first is higher: 0.0981 for the first, -0.163 for the second.

Going from ACCCCGCT to CACTCGGA, the “PBM E-score” value rises from -0.208 to 0.0864.

Compared with GAGAAAGC, CCAGTTGA is higher in “PBM E-score” value: -0.136 for the first, 0.118 for the second.

First: GATAGATC
Second: AACCACGT
The “PBM E-score” value of the first is lower: -0.00669 for the first, 0.0047 for the second.

Compared with ACTCCTGA, ATGTGGTC is lower in “PBM E-score” value: 0.282 for the first, -0.0215 for the second.

Going from TAAGTGCA to AATCATAA, the “PBM E-score” value rises from 0.0184 to 0.418.

Compared with ACCCAAAT, GATAGGGA is lower in “PBM E-score” value: -0.00743 for the first, -0.227 for the second.

First: AGACACTA
Second: CCGCTACC
The “PBM E-score” value of the first is higher: 0.046 for the first, -0.245 for the second.

First: ATTCCAAG
Second: ATGTCCCA
The “PBM E-score” value of the first is higher: -0.0431 for the first, -0.199 for the second.

Going from GGATGCTA to CGTTGGGC, the “PBM E-score” value falls from -0.101 to -0.14.

Compared with GAACTCTA, GGAGCGAC is higher in “PBM E-score” value: 0.043 for the first, 0.103 for the second.

First: AGGCTGAT
Second: GCTCCCCC
The “PBM E-score” value of the first is higher: 0.239 for the first, -0.183 for the second.

First: CCAAAAAA
Second: ACCACATA
The “PBM E-score” value of the first is higher: 0.0835 for the first, 0.0407 for the second.

Compared with GTGATCTA, CATACGTA is lower in “PBM E-score” value: 0.124 for the first, 0.0653 for the second.

Going from ACGCATCG to ATAACTCA, the “PBM E-score” value rises from -0.205 to 0.271.

Compared with CTCTTTAA, GAACGTAC is lower in “PBM E-score” value: 0.0515 for the first, 0.0263 for the second.

Compared with TCAATTAA, GGGCATAA is lower in “PBM E-score” value: 0.205 for the first, -0.125 for the second.

First: ACTCTTGA
Second: AGGGTAAG
The “PBM E-score” value of the first is lower: 0.15 for the first, 0.164 for the second.

First: TAAACGCA
Second: AGATGAAT
The “PBM E-score” value of the first is lower: -0.0223 for the first, 0.199 for the second.

First: CCGGACTA
Second: TCCCACGA
The “PBM E-score” value of the first is lower: 0.103 for the first, 0.117 for the second.

Going from GCTAGGTA to AGGCTTAC, the “PBM E-score” value falls from -0.126 to -0.215.

First: AAAAACGT
Second: CGGCATAC
The “PBM E-score” value of the first is higher: 0.106 for the first, -0.116 for the second.

Compared with AAGTTGTG, CACACGAC is higher in “PBM E-score” value: 0.0178 for the first, 0.112 for the second.

First: ATTACACG
Second: AACAAATA
The “PBM E-score” value of the first is higher: 0.00797 for the first, -0.0688 for the second.

Going from GAACTTCA to GGTGTCAA, the “PBM E-score” value rises from -0.0911 to -0.00117.

Going from AGTGCCGA to GAGATAGC, the “PBM E-score” value falls from 0.0247 to -0.259.

Compared with CCCGCTAG, CAGAGTTC is higher in “PBM E-score” value: -0.224 for the first, 0.0645 for the second.

Compared with GCTAAAAC, CGCCTCAC is lower in “PBM E-score” value: -0.0991 for the first, -0.133 for the second.

Going from TAGCGTAA to AGGACGGG, the “PBM E-score” value falls from 0.0156 to -0.261.

Compared with CTAGCCTA, CCTGACGA is higher in “PBM E-score” value: 0.0505 for the first, 0.115 for the second.

First: CGCCCTTC
Second: GGTACAAC
The “PBM E-score” value of the first is lower: -0.212 for the first, -0.00175 for the second.

Going from AGTATTGC to CTCTGCGC, the “PBM E-score” value falls from 0.0131 to -0.122.

Compared with CCCTCTCG, CCAGGCAC is higher in “PBM E-score” value: -0.226 for the first, -0.0375 for the second.

Going from GAATTTCA to CTCATTGC, the “PBM E-score” value rises from -0.0886 to 0.03.

Going from AGCCTCCA to ATTAGATA, the “PBM E-score” value rises from -0.245 to 0.137.

Compared with TTCGGAAA, CAACCAAC is higher in “PBM E-score” value: -0.147 for the first, -0.0733 for the second.

Going from GGGTCAAC to TGAGGGCA, the “PBM E-score” value falls from 0.189 to -0.256.

First: ACATCTAC
Second: GGGTTCGA
The “PBM E-score” value of the first is higher: 0.0328 for the first, -0.171 for the second.

First: ATTCCTTG
Second: TCCTACCA
The “PBM E-score” value of the first is higher: -0.00454 for the first, -0.265 for the second.

Going from GCAGTTAA to GAAGGAAA, the “PBM E-score” value falls from 0.0487 to -0.125.

Going from AATATCCC to ATTAGGGC, the “PBM E-score” value rises from -0.178 to -0.0516.

Compared with ATTGAACC, CAAATGCG is lower in “PBM E-score” value: 0.14 for the first, 0.0296 for the second.

Compared with CATCGTTC, AACGTCAG is lower in “PBM E-score” value: 0.115 for the first, -0.141 for the second.

First: AGCCGCAC
Second: AACGCTGT
The “PBM E-score” value of the first is higher: -0.0979 for the first, -0.242 for the second.

Going from GATCCAGC to AAAGAAAC, the “PBM E-score” value rises from -0.245 to 0.0456.

Compared with ATTCTGGC, AAAAATCC is lower in “PBM E-score” value: -0.0543 for the first, -0.168 for the second.

First: ACGTGAAG
Second: ATGAGCAC
The “PBM E-score” value of the first is lower: -0.0713 for the first, 0.0261 for the second.

First: CAGCGAGA
Second: CCACGTAC
The “PBM E-score” value of the first is higher: 0.018 for the first, -0.02 for the second.

Compared with AGCTATAA, CGGGGAAG is lower in “PBM E-score” value: -0.0153 for the first, -0.107 for the second.

Going from CTTTTTCA to ATCGTTCA, the “PBM E-score” value rises from -0.0235 to 0.049.

Going from AGATATAA to CCAAGACC, the “PBM E-score” value falls from -0.0278 to -0.297.

First: CTAAAGAC
Second: CCCTAAGA
The “PBM E-score” value of the first is higher: 0.0541 for the first, -0.144 for the second.

Compared with AACCTATT, AGGGAACG is lower in “PBM E-score” value: -0.135 for the first, -0.369 for the second.

Compared with ACTGATTG, TCAGTGAA is higher in “PBM E-score” value: 0.202 for the first, 0.224 for the second.

Going from ACCTGGCG to ATCCACCC, the “PBM E-score” value rises from -0.277 to -0.096.

Going from CCATGATC to CAACTGCC, the “PBM E-score” value falls from 0.0488 to -0.0195.

Compared with GGCCTAAC, GCTAGGGA is lower in “PBM E-score” value: -0.166 for the first, -0.312 for the second.

Compared with CTTTGGCC, CGTTTGGA is higher in “PBM E-score” value: -0.102 for the first, -0.0503 for the second.

Compared with CACTACAC, TAACCGGA is lower in “PBM E-score” value: -0.0592 for the first, -0.104 for the second.

Going from AAGCTGCG to CGGGCATA, the “PBM E-score” value rises from -0.289 to -0.155.

First: TCAACCAA
Second: AATGAGAC
The “PBM E-score” value of the first is lower: 0.0858 for the first, 0.257 for the second.

Going from GTGGTTCA to TGATGTAA, the “PBM E-score” value falls from 0.257 to 0.0177.

First: ACCTTGAT
Second: GAGTAAAC
The “PBM E-score” value of the first is lower: -0.0676 for the first, 0.0375 for the second.

Compared with AGCTCGGG, GTTAGAAC is higher in “PBM E-score” value: -0.0421 for the first, 0.0312 for the second.

Compared with ATTACGTA, GCGATGTA is lower in “PBM E-score” value: 0.0567 for the first, -0.145 for the second.

Going from AATCAGTA to AATGCTTC, the “PBM E-score” value falls from 0.234 to -0.162.

First: AGTACCAG
Second: AGTCTGTG
The “PBM E-score” value of the first is higher: 0.127 for the first, 0.123 for the second.

Going from GGACGTGA to ACCTCTGC, the “PBM E-score” value falls from 0.0222 to -0.164.

First: AGCATTCC
Second: CAAACCTA
The “PBM E-score” value of the first is lower: -0.176 for the first, -0.174 for the second.

Going from CTTTTTTA to CAACATAG, the “PBM E-score” value falls from 0.141 to 0.00635.

Compared with TTACCGAA, ACCTACTA is lower in “PBM E-score” value: 0.0922 for the first, -0.0168 for the second.

First: CTATCACA
Second: GCTTACCA
The “PBM E-score” value of the first is higher: 0.021 for the first, -0.0173 for the second.

Going from ACTGTGAG to ATTATGCG, the “PBM E-score” value rises from 0.149 to 0.2.

First: ATAGGATC
Second: TGATATCA
The “PBM E-score” value of the first is lower: -0.0811 for the first, -0.0616 for the second.

Going from GCGAACAA to AATGTGGG, the “PBM E-score” value falls from 0.0591 to -0.00891.

Going from ACTGGCCC to CCAGGGGG, the “PBM E-score” value falls from -0.0743 to -0.216.

First: CCGGGGTA
Second: AACAGGGC
The “PBM E-score” value of the first is lower: -0.16 for the first, -0.141 for the second.

Going from ACCGCCCA to AAGAGACA, the “PBM E-score” value rises from -0.117 to 0.128.

First: GCGTCTCA
Second: CCACGGCC
The “PBM E-score” value of the first is lower: -0.16 for the first, -0.131 for the second.

First: AACCAAAG
Second: CTCAAATC
The “PBM E-score” value of the first is lower: -0.00439 for the first, 0.158 for the second.

First: AATCCGCG
Second: ATGGCGCA
The “PBM E-score” value of the first is higher: -0.104 for the first, -0.153 for the second.

Compared with CGATCGAA, ACTATTTA is higher in “PBM E-score” value: 0.00969 for the first, 0.173 for the second.

Compared with AGCCGGGG, CCAGTACC is lower in “PBM E-score” value: -0.156 for the first, -0.159 for the second.
